Some of the results follow. Sequences were assembled here from the parent chain. Inactive controls read about 0.05.
B1: TEV protease; numbered along this chain (parent)
chain: MGESLFKGPRDYNPISSSICHLTNESDGHTTSLYGIGFGPFIITNKHLFRRNNGTLVVQSLHGVFKVKDTTTLQQHLVDGRDMIIIRMPKDFPPFPQKLKFREPQREERICLVTTNFQTKSMSSMVSDTSCTFPSGDGIFWKHWIQTKDGQCGSPLVSTRDGFIVGIHSASNFTNTNNYFTSVPKNFMELLTNQEAQQWVSGWRLNADSVLWGGHKVFMVKPEEPFQPVKEATQL

Variants of: B1
Assay: raw area under fraction-flipped curve 0-4 h after induction (AUC4h, not background-subtracted), DNA-recorder readout of cleavage of the substrate (dimensionless); higher = more cleavage of the substrate by the protease variant
Details: temperature: 34 °C; time window: 0-4 h after rhamnose induction
Method: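 In vivo DNA recorder in E. coli TOP10(DE3) ΔrhaA at 34 °C. Each TEVp single-site mutant (parent TEVp 0) is paired with a single-site variant of the 7-mer TEVs (canonical ENLYFQ|S). The substrate sits between flexible linkers in a Bxb1-sfGFP-TEVs-SsrA fusion, so cleavage stabilises Bxb1 and speeds flipping of a recombination array, read by NGS. The value is the raw area under the fraction-flipped curve over 0-4 h after rhamnose induction (AUC4h), with ≥20 reads per time point. It is not background-subtracted; inactive controls average about 0.047.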
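Also: Bxb1 expression induced with 0.2% (w/v) L-rhamnose at OD600 near 0.5, cultures sampled hourly, flipped fraction per protease–substrate barcode pair counted by paired-end Illumina sequencing.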

Variant | area with substrate ENLYFAS | area with substrate ENLYFFS | area with substrate ENLYFHS | area with substrate ENLYFIS | area with substrate ENLYFKS | area with substrate ENLYFLS | area with substrate ENLYFMS | area with substrate ENLYFNS | area with substrate ENLYFRS | area with substrate ENLYFTS | area with substrate ENLYFVS | area with substrate ENLYFCS | area with substrate ENLYFES | area with substrate ENLYFGS | area with substrate ENLYFPS | area with substrate ENLYFWS | area with substrate ENLYFYS | area with substrate ENLYFDS | area with substrate ENLYFSS
Q194T | 0.0609 | 0.0727 | 0.0526 | 0.0622 | 0.0395 | 0.0703 | 0.0693 | 0.0578 | 0.0646 | 0.0638 | 0.0845 |  |  |  |  |  |  |  | 
A196E | 0.0612 | 0.0703 | 0.0488 | 0.0534 | 0.0638 |  | 0.0663 |  | 0.0634 | 0.0597 | 0.0506 | 0.0651 | 0.0596 | 0.0607 | 0.0568 | 0.0596 | 0.0605 |  | 
A196K | 0.0597 | 0.0729 | 0.0607 | 0.0627 | 0.0663 | 0.055 | 0.0688 | 0.0676 | 0.0573 | 0.0601 |  |  | 0.0601 | 0.0606 | 0.0637 | 0.0762 | 0.0595 | 0.0838 | 0.0638
Q198C | 0.0606 | 0.0692 | 0.0515 | 0.0513 | 0.0606 | 0.0601 | 0.0594 | 0.0566 | 0.0522 | 0.0553 | 0.0616 | 0.0547 | 0.0731 | 0.0635 | 0.0634 | 0.0554 | 0.0547 | 0.064 | 
Q198D | 0.0615 |  | 0.0531 | 0.0629 | 0.072 |  | 0.0743 |  | 0.0652 | 0.0591 | 0.0562 | 0.0577 |  |  |  | 0.0569 | 0.0678 | 0.0482 | 0.0629
Q198E | 0.0596 | 0.073 |  | 0.0592 | 0.0597 | 0.0414 | 0.0664 | 0.0685 | 0.0666 | 0.0514 |  | 0.0628 | 0.06 |  | 0.053 | 0.0492 | 0.0644 | 0.0428 | 0.0551
Q198R | 0.07 | 0.0576 | 0.0569 | 0.0619 | 0.0629 | 0.0558 | 0.0631 |  | 0.0645 | 0.0511 |  |  | 0.0566 |  | 0.0567 | 0.0587 | 0.0684 |  | 0.0625
Q198W | 0.055 | 0.0762 | 0.0585 | 0.0472 | 0.0733 |  | 0.064 | 0.0633 | 0.059 | 0.0665 |  | 0.0566 | 0.0503 |  | 0.0641 | 0.0521 | 0.0608 | 0.0524 | 0.0429
W199C | 0.0667 | 0.0465 | 0.0592 | 0.0555 |  | 0.0526 | 0.0623 |  | 0.0699 | 0.0548 |  | 0.0564 | 0.053 | 0.0638 | 0.064 | 0.0564 | 0.0506 |  | 0.0694
W199R | 0.0625 | 0.0727 |  | 0.0651 | 0.0609 |  | 0.0596 | 0.109 | 0.06 |  |  | 0.066 | 0.066 | 0.0805 | 0.0602 | 0.0598 | 0.0478 |  | 0.066
G202H | 0.0602 | 0.0461 | 0.0521 | 0.0572 | 0.0535 |  | 0.0645 | 0.0595 |  | 0.0719 |  |  | 0.0586 | 0.0652 | 0.0549 |  |  |  | 0.0553
G202Y | 0.063 | 0.0749 | 0.0578 | 0.0523 | 0.118 |  | 0.064 | 0.0542 |  | 0.0731 | 0.0409 | 0.0444 | 0.0647 | 0.0508 |  | 0.0641 | 0.0724 |  | 0.0386

Reference: the supplement of paper PMC12217912
